Experimental data as given in PubChem BioAssay AID2546 (National Center for Advancing Translational Sciences (NCATS), 2010).
Among all 310,000 compounds or so, about 11,000 (3.5%) were called active. The shares of active, inactive and inconclusive entries below differ from those in the screen. The call rests on the fitted dose curve; in most records, active means well fitted inhibition curve with a large enough effect; inconclusive means small, poorly fitted or top-dose-only effect, or effect the other way; inactive means flat fitted curve, though single readings scatter. Potencies of inconclusive entries are left out as doubtful fits.

Assay: VP16 counterscreen qHTS for inhibitors of ROR gamma transcriptional activity;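 further: Gal4-VP16 expression switched on by copper sulfate through the metallothionein promoter; nearly all actives have a fitted effect of over 50% in size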
Details: Drosophila S2 Gal4-VP16 UAS-luciferase, luminescence, 20 h; series mostly up to 53.6 µM
Potency means the concentration at half of the fitted maximal effect; tags describe the fitted curve by direction and shape.

Structure (SMILES) | Potency
Cc1cc(NCc2ccccn2)n2ncc(-c3ccccc3)c2n1 | active: 0.316 µM
CCOc1cc(CNCc2ccccn2)cc(Cl)c1OC | inactive
Nc1cc(-c2ccccc2)nn1S(=O)(=O)c1ccc(F)cc1 | inconclusive [inhibitor, single point]
Cc1cccc(NC(=S)NNC(=O)c2cc3c(s2)CCC(C)C3)c1C (stereo not given) | inconclusive [inhibitor, partial curve]
CCCc1ccc2oc(C(=O)N3CCC(C(N)=O)(N4CCCCC4)CC3)c(C)c2c1 | inactive
COc1ccc2nc(N3C(=O)/C(=C/c4ccccc4)NC3=S)sc2c1 | active: 1.41 µM
Clc1ccc(OCCSCc2nc3ccccc3[nH]2)cc1 | active: 5.01 µM
S=C(NCCc1ccccc1)Nc1ccc(N2CCCCC2)cc1 | inconclusive [inhibitor, single point]
CCn1c(=O)cc(SCC(=O)Nc2cccc(C)n2)c2ccccc21 | inactive
Cc1cc(NC(=O)CCCN2C(=O)c3cccnc3C2=O)ccc1Br | inactive
O=C(NCc1ccc2c(c1)OCO2)c1cc2c(s1)CSC2 | inactive
Cc1cc2oc(=O)cc(CN3CCN(C/C=C/c4ccccc4)CC3)c2cc1O | active: 35.5 µM
Cc1cc(S(=O)(=O)ON2C(=O)c3ccccc3C2=O)ccc1F | active: 12.6 µM
O=C(Cc1ccc(F)cc1)Nc1nnc(-c2ccc(F)cc2)o1 | active: 1.41 µM
Cc1cccc(Nc2nc(-c3cccs3)cs2)n1 | inconclusive [activator, partial curve]
Cc1onc(-c2c(Cl)cccc2Cl)c1C(=O)OCC(=O)c1ccccc1 | inactive
CC(C)(C)n1nnnc1C(c1ccccn1)N(Cc1ccccc1)Cc1ccc(Cl)cc1 (stereo not given) | inconclusive [inhibitor, single point]
CCNC(=S)NN(c1ccccc1)c1ccccc1 | inconclusive [inhibitor, single point]
Cc1ccc(S(=O)(=O)N(C)c2cccc3cccnc23)cc1 | inactive
CN(C)c1ccc(/C=C/c2nc3ccccc3s2)cc1 | active: 3.98 µM
O=C(NC1=NCCS1)c1sc2cc(F)ccc2c1Cl | inconclusive [inhibitor, single point]
CCn1c(C)nc2cc(C(=O)N=Nc3c(O)[nH]c4c(C)cc(C)cc34)ccc21 | inconclusive [inhibitor, full curve]
COc1ccc(-c2cn(-c3ccc(Cl)cc3)c3[n+]2CCCCC3)cc1 | inconclusive [inhibitor, single point]
O=C(/C=C/c1cccc([N+](=O)[O-])c1)NC(=S)Nc1ccccc1C(=O)O | inconclusive [inhibitor, single point]
Cc1ccc(C=Nc2ccccc2C(N)=O)o1 | active: 20 µM

Structure (SMILES) | Potency
Cc1ccc(N(Cc2ccc([N+](=O)[O-])cc2)C(=O)c2ccco2)cc1C | inconclusive [activator, single point]
O=C1c2ccccc2C(=O)N1CC(O)COc1ccc(Br)cc1 (stereo not given) | inactive
Oc1ccc(C=Nc2ccc3ncccc3c2)c(O)c1 | inconclusive [inhibitor, single point]
O=C(O)c1ccc(N/N=C/c2ccnc3ccccc23)cc1 | inconclusive [inhibitor, partial curve, poor fit]
CC1(C)NC(=O)N(CC(=O)OCC(=O)Nc2cccc(S(N)(=O)=O)c2)C1=O | inactive
O=C(Cc1cccs1)Nc1cccc(-c2nc3ccccc3o2)c1 | inconclusive [inhibitor, single point]
CCOC(=O)c1cccc(NC(=O)c2cnc3ccccc3n2)c1 | inconclusive [inhibitor, partial curve]
CCCn1nnnc1NCc1cc(Br)ccc1OC | inconclusive [inhibitor, single point]
OCCN(CCO)c1ccc(C(c2ccccc2Cl)c2ccc(N(CCO)CCO)cc2Cl)c(Cl)c1 | inconclusive [inhibitor, single point]
O=c1c(Cl)c(NCc2ccc(F)cc2)cnn1C12CC3CC(CC(C3)C1)C2 | inconclusive [inhibitor, single point]
COc1ccc2c(c1OC)C(=O)N(c1ccc(F)cc1)C2 | inactive
CS(=O)(=O)Nc1ccc(-c2ccc(/C=C3\SC(N)=NC3=O)o2)cc1 | inactive
CCCCCn1c(C(Cc2ccccc2)NC(C)=O)nc2ccccc21 (stereo not given) | inconclusive [inhibitor, single point]
CC1CC=CC2C1C(=O)N(Cc1ccccc1)C2c1ccc(-c2cc3ccccc3s2)cc1F (stereo not given) | inconclusive [activator, single point]
Cc1ccc2[nH]c(=O)c3cc(C(=O)NCCC(C)C)sc3c2c1 | inconclusive [inhibitor, single point]
O=C(OCCCCN1C(=O)c2ccccc2C1=O)c1n[nH]c2ccccc12 | active: 31.6 µM
CCOC(=O)C1=C(N)Oc2cc(O)ccc2C1c1ccc(F)cc1F (stereo not given) | inconclusive [inhibitor, single point]
CCOc1cc(/C=C2\SC(=S)N(C(C(=O)O)c3ccccc3)C2=O)ccc1O (stereo not given) | inconclusive [inhibitor, partial curve, poor fit]
O=c1cc(C(F)(F)F)[nH]c2ccc(C(F)(F)F)cc12 | inconclusive [inhibitor, single point]
CCOC(=O)/C(C#N)=C/c1c[nH]c2ccccc12 | inconclusive [inhibitor, single point]
Nc1c(C(=O)NCCN2CCOCC2)c2nc3ccccc3nc2n1CCc1ccccc1F | inconclusive [inhibitor, single point]
Cn1c(=O)cc(SCC(=O)N2CCN(c3ccccn3)CC2)c2ccccc21 | inactive
COc1cc2[nH]c(=O)n(CCCCCC(=O)N3CCN(c4ccccn4)CC3)c(=O)c2cc1OC | inconclusive [inhibitor, partial curve]
O=C(CCCN1C(=O)/C(=C/c2cccs2)SC1=S)Nc1ccccc1O | inconclusive [inhibitor, single point]
CC(C)C(Nc1ncnc2c1oc1ccccc12)C(=O)O (stereo not given) | inactive

Structure (SMILES) | Potency
CCOC(=O)c1nn(-c2ccc3c(c2)OCCO3)cc1O | inconclusive [inhibitor, single point]
Cn1ncc(Cl)c1C(=O)Nc1nc2ccc(Cl)cc2s1 | inconclusive [inhibitor, single point]
Cc1ccc(OCC(=O)Nc2ccc(CN3CCOCC3)cc2)cc1C | inactive
Cc1ccc(C(=O)Nc2ccccc2C(=O)NCC2CCCO2)cc1 (stereo not given) | inactive
Cc1ccc(/C=N/Nc2ccc3c(C(F)(F)F)cc(C(F)(F)F)nc3n2)cc1 | inactive
Cc1ccc(S(=O)(=O)NCCC(=O)Nc2ccc(Cl)c(Cl)c2)cc1 | inconclusive [inhibitor, single point]
CCCCn1c(=O)[nH]c(=O)c2c1nc(CN1C(=O)c3ccccc3S1(=O)=O)n2CCC | inconclusive [inhibitor, single point]
O=C(CO/N=C/c1ccc(OC(F)F)cc1)NCc1ccc(F)cc1 | inconclusive [inhibitor, partial curve, poor fit]
CCOc1ccc(-c2noc(CCC(=O)O)n2)cc1 | active: 1.41 µM
CC(C)[C@H](NC(=O)OC(C)(C)C)c1nnc(SCC(=O)Nc2ccc(Br)cc2)o1 | active: 31.6 µM
CCC1=NN(C(=O)Cc2ccc([N+](=O)[O-])cc2)C(O)(c2ccncc2)C1 (stereo not given) | inactive
COc1cccc(-c2nc(-c3ccc(NC(=O)c4ccncc4)cc3)no2)c1 | inconclusive [inhibitor, full curve]
COc1ccc(/C=C/C(=O)C2CC2)cc1Cn1nc(C)c([N+](=O)[O-])c1C | inconclusive [activator, single point]
O=C(COC(=O)c1c(F)cccc1F)Nc1ccccc1OC(F)F | inactive
O=C(CN1C(=O)c2ccccc2S1(=O)=O)c1ccccc1 | active: 14.1 µM
Cc1nnc(NC(=O)c2ccccc2NC(=O)c2ccccc2)s1 | inactive
COc1c(Cl)cc(C(=O)NN)cc1Cl | inconclusive [inhibitor, single point]
CCN(CC)c1ccc2c(c1)CCCN2 | inconclusive [inhibitor, single point]
O=C(CS(=O)(=O)Cc1ccccc1)N1CCc2ccccc21 | inconclusive [activator, partial curve]
Cc1cccc(C)c1NC(=O)C1(N2C(=O)CC2c2ccccc2)CCCCC1 (stereo not given) | inactive
CC(=O)n1cc(N(C(=O)CCl)c2ccc(C)cc2)c2ccccc21 | inconclusive [inhibitor, single point]
COc1ccc(O)c(-c2cc(-c3ccccc3Cl)[nH]n2)c1 | inconclusive [inhibitor, single point]
CC(=O)c1cccc(NC(=O)c2cc3ccccn3n2)c1 | inconclusive [inhibitor, single point]
C=CCN(C(=O)CSC1=NC(=O)CN1C(C)=O)c1nc(C)c(-c2ccccc2)s1 | inconclusive [inhibitor, single point]
C=CCOc1cccc(/C=C2\C(=O)N(Cc3ccc(C)cc3)C(C)=C2C(=O)OC)c1 | inconclusive [inhibitor, single point]
